Test results taken from US20220175942A1 (OXFORD UNIVERSITY INNOVATION, published 2022).

Biological target: T1, P1156_IXORI (Ixodes ricinus, UniProt V5HBW0 29-108)
T1 construct: Tick evasin; also called Evasin
T1 sequence: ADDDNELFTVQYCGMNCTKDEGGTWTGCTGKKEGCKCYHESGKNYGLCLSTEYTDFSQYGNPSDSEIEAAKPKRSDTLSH
Assay: yeast surface display library FACS screen, labelled chemokine (col C: isolated in)

B1: CXCL8_HUMAN (ligand)
chain: not shown
notes: Biotinylated (detected with streptavidin-Alexa647) in yeast display; AlexaFluor 647 labelled (Almac) in thermophoresis
binding result: binds
